# According to the supplement of paper PMC8728848:
# Some of the results follow.
# How the values were obtained:
# Assay in all cases: glycan array binding signal (z-score within array); higher = stronger binding
# Settings in all cases: glycan notation: IUPAC condensed, linker removed
# GlcNAc(b1-3)Man = biological target: GlcNAc(b1-3)Man
# In short: (§1)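 Columns mapping to the same glycan were averaged after glycan names were converted to IUPAC-condensed notation. The data come from 3228 arrays in the Consortium for Functional Glycomics database, limited to those with an available protein sequence. Binding is reported as a within-array Z-score averaged across arrays of one protein sequence and across linkers.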
# [1] = biological target: GlcNAc(b1-3)[GlcNAc(b1-4)][GlcNAc(b1-6)]GlcNAc
# In short: as §1
# [2] = biological target: GlcNAc(b1-3)[GlcNAc(b1-6)]Gal(b1-4)GlcNAc
# In short: as §1
# [3] = biological target: GlcNAc(b1-3)[GlcNAc(b1-6)]GalNAc
# In short: as §1
# [4] = biological target: GlcNAc(b1-4)Gal(b1-4)GlcNAc
# In short: as §1
# GlcNAc(b1-4)GlcNAc = biological target: GlcNAc(b1-4)GlcNAc
# In short: as §1
# [5] = biological target: GlcNAc(b1-4)GlcNAc(b1-4)GlcNAc
# In short: as §1
# [6] = biological target: GlcNAc(b1-4)GlcNAc(b1-4)GlcNAc(b1-4)GlcNAc(b1-4)GlcNAc
# In short: as §1
# [7] = biological target: GlcNAc(b1-4)GlcNAc(b1-4)GlcNAc(b1-4)GlcNAc(b1-4)GlcNAc(b1-4)GlcNAc
# In short: as §1
# [8] = biological target: GlcNAc(b1-4)[GlcNAc(b1-6)]GalNAc
# In short: as §1
# [9] = biological target: GlcNAc(b1-6)Gal(b1-4)GlcNAc
# In short: as §1
# GlcNAc(b1-6)GalNAc = biological target: GlcNAc(b1-6)GalNAc
# In short: as §1
# [10] = biological target: GlcNAc6S(b1-3)Gal(b1-4)GlcNAc
# In short: as §1
# Kdn(a2-3)Gal(b1-3)GalNAc = biological target: Kdn(a2-3)Gal(b1-3)GalNAc
# In short: as §1
# Kdn(a2-3)Gal(b1-3)GlcNAc = biological target: Kdn(a2-3)Gal(b1-3)GlcNAc
# In short: as §1
# Kdn(a2-3)Gal(b1-4)Glc = biological target: Kdn(a2-3)Gal(b1-4)Glc
# In short: as §1
# Kdn(a2-3)Gal(b1-4)GlcNAc = biological target: Kdn(a2-3)Gal(b1-4)GlcNAc
# In short: as §1
# [11] = biological target: Kdn(a2-3)Gal(b1-4)[Fuc(a1-3)]GlcNAc
# In short: as §1
# Kdn(a2-6)Gal(b1-4)GlcNAc = biological target: Kdn(a2-6)Gal(b1-4)GlcNAc
# In short: as §1
# [12] = biological target: Man(a1-2)Man(a1-2)Man(a1-3)Man
# In short: as §1
# [13] = biological target: Man(a1-2)Man(a1-2)Man(a1-6)[Man(a1-3)]Man
# In short: as §1
# Man(a1-2)Man(a1-3)Man = biological target: Man(a1-2)Man(a1-3)Man
# In short: as §1
# [14] = biological target: Man(a1-2)Man(a1-3)[Man(a1-2)Man(a1-6)]Man
# In short: as §1
# [15] = biological target: Man(a1-2)Man(a1-3)[Man(a1-2)Man(a1-6)]Man(a1-6)[Man(a1-2)Man(a1-2)Man(a1-3)]Man
# In short: as §1
# [16] = biological target: Man(a1-2)Man(a1-3)[Man(a1-2)Man(a1-6)]Man(a1-6)[Man(a1-2)Man(a1-2)Man(a1-3)]Man(b1-4)GlcNAc(b1-4)GlcNAc
# In short: as §1
# [17] = biological target: Man(a1-2)Man(a1-3)[Man(a1-6)]Man(a1-6)[Man(a1-2)Man(a1-3)]Man(b1-4)GlcNAc(b1-4)GlcNAc
# In short: as §1
# [18] = biological target: Man(a1-2)Man(a1-6)[Man(a1-3)]Man(a1-6)[Man(a1-2)Man(a1-2)Man(a1-3)]Man
# In short: as §1
# [19] = biological target: Man(a1-2)Man(a1-6)[Man(a1-3)]Man(a1-6)[Man(a1-2)Man(a1-2)Man(a1-3)]Man(b1-4)GlcNAc(b1-4)GlcNAc
# In short: as §1
# Man(a1-3)[Man(a1-6)]Man = biological target: Man(a1-3)[Man(a1-6)]Man
# In short: as §1
# [20] = biological target: Man(a1-3)[Man(a1-6)]Man(a1-6)[Man(a1-2)Man(a1-3)]Man(b1-4)GlcNAc(b1-4)GlcNAc
# In short: as §1
# [21] = biological target: Man(a1-3)[Man(a1-6)]Man(a1-6)[Man(a1-3)]Man
# In short: as §1
# [22] = biological target: Man(a1-3)[Man(a1-6)]Man(a1-6)[Man(a1-3)]Man(b1-4)GlcNAc(b1-4)GlcNAc
# In short: as §1
# [23] = biological target: Man(a1-3)[Man(a1-6)]Man(b1-4)GlcNAc(b1-4)GlcNAc
# In short: as §1
# [24] = biological target: Man(a1-3)[Man(a1-6)]Man(b1-4)GlcNAc(b1-4)[Fuc(a1-6)]GlcNAc
# In short: as §1
# Man(a1-6)Man = biological target: Man(a1-6)Man
# In short: as §1
# Man(b1-4)GlcNAc = biological target: Man(b1-4)GlcNAc
# In short: as §1
# MurNAc(b1-4)GlcNAc = biological target: MurNAc(b1-4)GlcNAc
# In short: as §1
# Neu5Ac(a2-3)Gal = biological target: Neu5Ac(a2-3)Gal
# In short: as §1
binder,measurement,setting,value
OGAN (protein) MVQKESQATLEERESELSSNPAASAGASLEPPAAPAPGEDNPAGAGGAAVAGAAGGARRFLCGVVEGFYGRPWVMEQRKELFRRLQKWELNTYLYAPKDDYKHRMFWREMYSVEEAEQLMTLISAAREYEIEFIYAISPGLDITFSNPKEVSTLKRKLDQVSQFGCRSFALLFNDIDHNMCAADKEVFSSFAHAQVSITNEIYQYLGEPETFLFCPTEYCGTFCYPNVSQSPYLRTVGEKLLPGIEVLWTGPKVVSKEIPVESIEEVSKIIKRAPVIWDNIHANDYDQKRLFLGPYKGRSTELIPRLKGVLTNPNCEFEANYVAIHTLATWYKSNMNGVRKDVVMTDSEDSTVSIQIKLENEGSDEDIETDVLYSPQMALKLALTEWLQEFGVPHQY,glycan array binding signal (z-score),GlcNAc(b1-3)Man,-0.072
same,glycan array binding signal (z-score),[1],-0.047
same,glycan array binding signal (z-score),[2],-0.04
same,glycan array binding signal (z-score),[3],-0.015
same,glycan array binding signal (z-score),[4],-0.076
same,glycan array binding signal (z-score),GlcNAc(b1-4)GlcNAc,-0.058
same,glycan array binding signal (z-score),[5],-0.11
same,glycan array binding signal (z-score),[6],-0.084
same,glycan array binding signal (z-score),[7],-0.09
same,glycan array binding signal (z-score),[8],-0.065
same,glycan array binding signal (z-score),[9],-0.024
same,glycan array binding signal (z-score),GlcNAc(b1-6)GalNAc,-0.064
same,glycan array binding signal (z-score),[10],-0.094
same,glycan array binding signal (z-score),Kdn(a2-3)Gal(b1-3)GalNAc,-0.053
same,glycan array binding signal (z-score),Kdn(a2-3)Gal(b1-3)GlcNAc,-0.082
same,glycan array binding signal (z-score),Kdn(a2-3)Gal(b1-4)Glc,-0.059
same,glycan array binding signal (z-score),Kdn(a2-3)Gal(b1-4)GlcNAc,-0.083
same,glycan array binding signal (z-score),[11],-0.059
same,glycan array binding signal (z-score),Kdn(a2-6)Gal(b1-4)GlcNAc,-0.052
same,glycan array binding signal (z-score),[12],-0.08
same,glycan array binding signal (z-score),[13],-0.022
same,glycan array binding signal (z-score),Man(a1-2)Man(a1-3)Man,-0.01
same,glycan array binding signal (z-score),[14],-0.051
same,glycan array binding signal (z-score),[15],-0.019
same,glycan array binding signal (z-score),[16],-0.036
same,glycan array binding signal (z-score),[17],-0.061
same,glycan array binding signal (z-score),[18],-0.09
same,glycan array binding signal (z-score),[19],-0.071
same,glycan array binding signal (z-score),Man(a1-3)[Man(a1-6)]Man,-0.093
same,glycan array binding signal (z-score),[20],-0.069
same,glycan array binding signal (z-score),[21],-0.057
same,glycan array binding signal (z-score),[22],-0.071
same,glycan array binding signal (z-score),[23],-0.05
same,glycan array binding signal (z-score),[24],-0.101
same,glycan array binding signal (z-score),Man(a1-6)Man,-0.073
same,glycan array binding signal (z-score),Man(b1-4)GlcNAc,-0.074
same,glycan array binding signal (z-score),MurNAc(b1-4)GlcNAc,-0.024
same,glycan array binding signal (z-score),Neu5Ac(a2-3)Gal,-0.063
